{
  "source": "patent US20220340678A1",
  "about": "(MURAL ONCOLOGY, published 2022)",
  "binders": {"B1": {"name": "Human cpIL-2:IL-2Ra:Fc:Human uPA-ATF (Fc fusion)", "chain": "SKNFHLRPRDLISNINVIVLELKGSETTFMCEYADETATIVEFLNRWITFSQSIISTLTGGSSSTKKTQLQLEHLLLDLQMILNGINNYKNPKLTRMLTFKFYMPKKATELKHLQCLEEELKPLEEVLNLAQGSGGGSELCDDDPPEIPHATFKAMAYKEGTMLNCECKRGFRRIKSGSLYMLCTGNSSHSSWDNQCQCTSSATRNTTKQVTPQPEEQKERKTTEMQSPMQPVDQASLPGHCREPPPWENEATERIYHFVVGQMVYYQCVQGYRALHRGPAESVCKMTHGKTRWTQPQLICTGGGGS[omitted - about 350 residues with a human IgG1 Fc]"}},
  "molecular_target": "T1, IL-2/IL-15 receptor on HH cells (human)",
  "T1 chain 1": "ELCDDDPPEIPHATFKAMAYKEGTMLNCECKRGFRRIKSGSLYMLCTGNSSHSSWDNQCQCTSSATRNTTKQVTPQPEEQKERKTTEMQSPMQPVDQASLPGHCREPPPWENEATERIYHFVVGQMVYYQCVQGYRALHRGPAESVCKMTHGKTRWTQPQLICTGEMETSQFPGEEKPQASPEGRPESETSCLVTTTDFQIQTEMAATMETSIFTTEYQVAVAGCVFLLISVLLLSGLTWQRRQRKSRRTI",
  "T1 chain 2": "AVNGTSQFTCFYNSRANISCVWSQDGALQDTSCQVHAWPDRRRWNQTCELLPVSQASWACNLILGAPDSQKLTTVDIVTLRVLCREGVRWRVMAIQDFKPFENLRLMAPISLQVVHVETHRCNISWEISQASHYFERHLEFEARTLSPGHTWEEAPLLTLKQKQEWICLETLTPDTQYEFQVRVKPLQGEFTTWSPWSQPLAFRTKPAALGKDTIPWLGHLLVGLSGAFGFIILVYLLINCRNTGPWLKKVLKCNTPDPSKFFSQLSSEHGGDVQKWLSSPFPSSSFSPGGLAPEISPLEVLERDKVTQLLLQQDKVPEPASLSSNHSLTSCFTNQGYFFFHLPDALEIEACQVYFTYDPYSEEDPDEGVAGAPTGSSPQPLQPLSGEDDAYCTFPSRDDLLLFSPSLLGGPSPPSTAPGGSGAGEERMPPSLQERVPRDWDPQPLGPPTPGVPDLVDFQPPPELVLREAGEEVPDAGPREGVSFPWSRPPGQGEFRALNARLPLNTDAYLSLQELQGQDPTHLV",
  "T1 chain 3": "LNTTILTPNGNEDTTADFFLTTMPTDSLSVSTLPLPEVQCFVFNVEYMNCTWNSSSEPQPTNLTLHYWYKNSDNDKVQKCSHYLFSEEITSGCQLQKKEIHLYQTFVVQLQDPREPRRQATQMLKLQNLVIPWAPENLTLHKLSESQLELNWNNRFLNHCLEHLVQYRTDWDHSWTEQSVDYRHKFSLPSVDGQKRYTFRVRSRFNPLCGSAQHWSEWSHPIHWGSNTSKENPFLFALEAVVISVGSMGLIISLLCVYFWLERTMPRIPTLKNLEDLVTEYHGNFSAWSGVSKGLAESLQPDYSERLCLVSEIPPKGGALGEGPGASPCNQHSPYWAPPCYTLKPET",
  "assay": "cell-based or functional assay",
  "data": [
    {"binder": "B1", "values": [
      {"measurement": "pSTAT5 EC50, HH cells", "value": 2.1, "unit": "nM"}
    ]}
  ]
}
